No constants are given. Whether binding was seen depends on the method and setting. In cells and extracts the contact can be indirect. Some binding calls cover weakened binding; strength is not graded here. For part of these data: Tags and fused reporters may be left off the sequences shown. Values belong to the molecule of their own block, whether it stands above or below them.
What was measured:
[1] = target: T1, USP33 (human) (UniProt Q8TEY7); assay: co-IP; lysates of HEK293T cells expressing WT-RHOA and/or USP9X (USP33 as comparison); Flag-M2 agarose; 0.3% Nonidet P40 buffer (50 mM Tris-HCl, 150 mM NaCl, pH 7.5); Western blot
T1 sequence: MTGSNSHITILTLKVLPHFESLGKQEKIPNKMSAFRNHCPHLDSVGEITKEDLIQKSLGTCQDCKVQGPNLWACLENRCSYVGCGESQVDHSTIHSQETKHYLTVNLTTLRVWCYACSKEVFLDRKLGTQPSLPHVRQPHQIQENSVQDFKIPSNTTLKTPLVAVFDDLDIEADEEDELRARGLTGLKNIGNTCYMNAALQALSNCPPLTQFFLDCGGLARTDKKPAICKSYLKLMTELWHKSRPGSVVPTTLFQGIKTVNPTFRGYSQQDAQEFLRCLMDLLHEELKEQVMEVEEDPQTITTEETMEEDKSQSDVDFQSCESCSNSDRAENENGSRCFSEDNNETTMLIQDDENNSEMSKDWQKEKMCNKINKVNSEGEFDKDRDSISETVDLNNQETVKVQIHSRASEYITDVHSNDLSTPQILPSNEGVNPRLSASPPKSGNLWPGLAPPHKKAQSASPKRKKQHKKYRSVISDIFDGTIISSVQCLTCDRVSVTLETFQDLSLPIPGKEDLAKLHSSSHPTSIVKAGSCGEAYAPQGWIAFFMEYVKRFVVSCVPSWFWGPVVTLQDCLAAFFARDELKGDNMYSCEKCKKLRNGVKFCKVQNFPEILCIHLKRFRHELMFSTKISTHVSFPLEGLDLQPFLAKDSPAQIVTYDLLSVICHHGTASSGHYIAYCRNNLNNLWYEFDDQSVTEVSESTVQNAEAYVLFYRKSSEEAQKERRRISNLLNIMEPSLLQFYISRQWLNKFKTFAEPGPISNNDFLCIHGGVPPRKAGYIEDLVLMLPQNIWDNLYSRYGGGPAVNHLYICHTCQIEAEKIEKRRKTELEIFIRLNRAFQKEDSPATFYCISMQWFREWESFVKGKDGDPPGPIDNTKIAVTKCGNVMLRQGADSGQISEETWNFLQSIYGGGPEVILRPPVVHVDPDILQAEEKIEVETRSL

Sequences of proteins named here, by UniProt entry; tags and fusion partners are left off. A change or cut given only in a name is not applied to a line headed by its entry.
UniProt Q93008: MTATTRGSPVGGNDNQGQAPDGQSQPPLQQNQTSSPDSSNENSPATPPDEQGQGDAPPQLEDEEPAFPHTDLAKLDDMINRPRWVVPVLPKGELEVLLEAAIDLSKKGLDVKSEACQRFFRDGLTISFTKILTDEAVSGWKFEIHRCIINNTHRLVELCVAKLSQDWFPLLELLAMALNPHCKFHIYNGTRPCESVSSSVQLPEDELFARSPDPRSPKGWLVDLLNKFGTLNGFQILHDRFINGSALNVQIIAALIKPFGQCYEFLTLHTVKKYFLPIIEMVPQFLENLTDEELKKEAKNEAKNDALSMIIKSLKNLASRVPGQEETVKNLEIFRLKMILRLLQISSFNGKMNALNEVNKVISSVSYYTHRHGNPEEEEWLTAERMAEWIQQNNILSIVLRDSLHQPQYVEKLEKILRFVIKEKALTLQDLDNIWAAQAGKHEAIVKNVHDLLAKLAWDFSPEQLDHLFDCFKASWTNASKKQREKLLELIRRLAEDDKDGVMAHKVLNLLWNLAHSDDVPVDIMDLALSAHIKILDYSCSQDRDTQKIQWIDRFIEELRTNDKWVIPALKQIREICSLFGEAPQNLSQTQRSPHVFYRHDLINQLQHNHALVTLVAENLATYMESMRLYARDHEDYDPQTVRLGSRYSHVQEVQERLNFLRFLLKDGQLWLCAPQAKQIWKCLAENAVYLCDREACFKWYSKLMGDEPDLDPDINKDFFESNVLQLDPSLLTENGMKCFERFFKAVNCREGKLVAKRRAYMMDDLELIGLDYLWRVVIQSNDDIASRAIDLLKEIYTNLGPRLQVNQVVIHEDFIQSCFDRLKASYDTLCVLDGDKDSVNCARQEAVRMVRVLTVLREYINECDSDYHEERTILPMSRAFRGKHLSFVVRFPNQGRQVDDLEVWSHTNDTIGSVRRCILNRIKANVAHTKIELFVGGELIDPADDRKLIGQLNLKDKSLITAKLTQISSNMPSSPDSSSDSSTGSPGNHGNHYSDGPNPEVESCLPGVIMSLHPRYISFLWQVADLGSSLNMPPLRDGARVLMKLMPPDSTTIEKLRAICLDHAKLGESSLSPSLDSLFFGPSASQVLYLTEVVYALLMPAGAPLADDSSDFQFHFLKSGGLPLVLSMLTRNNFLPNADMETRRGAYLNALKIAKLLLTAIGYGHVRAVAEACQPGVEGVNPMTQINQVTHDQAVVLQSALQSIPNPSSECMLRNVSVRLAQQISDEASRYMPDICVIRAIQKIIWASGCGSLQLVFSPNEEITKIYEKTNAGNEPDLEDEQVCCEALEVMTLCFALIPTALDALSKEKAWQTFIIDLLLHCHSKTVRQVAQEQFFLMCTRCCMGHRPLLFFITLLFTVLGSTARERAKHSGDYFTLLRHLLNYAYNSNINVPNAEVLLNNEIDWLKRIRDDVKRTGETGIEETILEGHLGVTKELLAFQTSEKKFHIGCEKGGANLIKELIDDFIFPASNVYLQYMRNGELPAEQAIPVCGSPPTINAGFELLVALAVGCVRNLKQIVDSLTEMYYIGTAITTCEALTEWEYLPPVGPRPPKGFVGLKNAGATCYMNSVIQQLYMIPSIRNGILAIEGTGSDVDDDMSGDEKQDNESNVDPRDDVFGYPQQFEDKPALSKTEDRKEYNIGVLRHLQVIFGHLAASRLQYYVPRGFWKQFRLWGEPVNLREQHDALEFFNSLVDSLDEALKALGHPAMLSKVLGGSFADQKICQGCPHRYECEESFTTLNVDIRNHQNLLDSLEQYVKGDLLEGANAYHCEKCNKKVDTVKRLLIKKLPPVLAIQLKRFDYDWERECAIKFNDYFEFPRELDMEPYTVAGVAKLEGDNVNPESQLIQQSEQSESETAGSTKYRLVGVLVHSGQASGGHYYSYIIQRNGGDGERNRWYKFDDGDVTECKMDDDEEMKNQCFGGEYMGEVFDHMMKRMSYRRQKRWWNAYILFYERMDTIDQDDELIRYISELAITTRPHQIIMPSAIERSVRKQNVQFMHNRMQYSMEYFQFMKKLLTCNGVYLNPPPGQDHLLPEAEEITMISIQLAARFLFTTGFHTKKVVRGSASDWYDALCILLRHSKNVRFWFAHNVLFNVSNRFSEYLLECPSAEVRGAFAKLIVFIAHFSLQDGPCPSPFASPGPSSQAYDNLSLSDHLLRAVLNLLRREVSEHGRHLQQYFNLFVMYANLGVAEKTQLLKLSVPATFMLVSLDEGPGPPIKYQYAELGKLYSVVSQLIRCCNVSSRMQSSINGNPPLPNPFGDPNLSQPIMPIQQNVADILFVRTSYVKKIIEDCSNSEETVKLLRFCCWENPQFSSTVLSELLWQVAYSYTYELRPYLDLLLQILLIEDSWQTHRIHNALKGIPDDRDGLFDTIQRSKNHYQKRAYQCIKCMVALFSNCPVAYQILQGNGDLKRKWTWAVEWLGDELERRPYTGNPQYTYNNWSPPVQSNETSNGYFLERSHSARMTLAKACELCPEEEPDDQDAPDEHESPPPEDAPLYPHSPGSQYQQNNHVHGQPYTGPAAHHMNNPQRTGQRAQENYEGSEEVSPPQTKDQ
UniProt P61586: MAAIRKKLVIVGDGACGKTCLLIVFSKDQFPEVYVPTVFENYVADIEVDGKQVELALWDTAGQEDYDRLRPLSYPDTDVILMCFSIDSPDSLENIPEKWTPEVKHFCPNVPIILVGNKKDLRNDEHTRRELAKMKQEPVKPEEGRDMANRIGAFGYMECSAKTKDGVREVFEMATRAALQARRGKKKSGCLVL

[2] = target: Ubiquitin carboxyl-terminal hydrolase 9X (USP9X) (human) (UniProt Q93008); assay: as above
[3] = target: RHOA K118 lactylated (site-specific lactylation system, Flag-RHOA K118TAG) (human) (UniProt P61586); assay: co-IP; ROCK2-RBD-HA co-expressed with WT, lactylated or mutant RHOA in HEK293T; lysis in Mg2+ lysis/wash buffer; RHOA precipitated with Flag-M2 agarose; bound RBD detected by immunoblotting
[4] = target: RHOA K162 lactylated (site-specific lactylation system, Flag-RHOA K162TAG) (human) (UniProt P61586); assay: co-IP; lysates of HEK293T cells expressing WT-RHOA, K162La or K162R and/or KCTD13; Flag-M2 agarose, 3 h at 4 C; 0.3% Nonidet P40 buffer (50 mM Tris-HCl, 150 mM NaCl, pH 7.5); Western blot
[5] = target: RHOA K162R mutant (human) (UniProt P61586); assay: as above
[6] = target: Flag-RHOA (wild type) (human) (UniProt P61586); assay: as above

binding [1]: no binding
binding [2]: binds
Molecule: WT-RHOA (co-expressed with USP9X or USP33) (from UniProt P61586 1-193)

binding [3]: binds
B1: ROCK2-RBD-HA (RHOA-binding domain of human ROCK2, amino acids 979 to 1047, fused to HA-tag) (domain or fragment, UniProt O75116 979-1047)
chain: TSDVANLANEKEELNNKLKDVQEQLSRLKDEEISAAAIKAQFEKQLLTERTLKTQAVNKLAEIMNRKEP

binding [4]: binds
binding [5]: binds
binding [6]: binds
B2: BTB/POZ domain-containing protein (KCTD13) (protein, UniProt Q8WZ19 1-329)
chain: MSAEASGPAAAAAPSLEAPKPSGLEPGPAAYGLKPLTPNSKYVKLNVGGSLHYTTLRTLTGQDTMLKAMFSGRVEVLTDAGGWVLIDRSGRHFGTILNYLRDGSVPLPESTRELGELLGEARYYLVQGLIEDCQLALQQKRETLSPLCLIPMVTSPREEQQLLASTSKPVVKLLHNRSNNKYSYTSTSDDNLLKNIELFDKLALRFHGRLLFLKDVLGDEICCWSFYGQGRKIAEVCCTSIVYATEKKQTKVEFPEARIFEETLNILIYETPRGPDPALLEATGGAAGAGGAGRGEDEENREHRVRRIHVRRHITHDERPHGQQIVFKD

Reference: PMC12750741
